Laboratory results: PubChem BioAssay AID1508623 (National Center for Advancing Translational Sciences (NCATS), 2021)
Among all 48,000 compounds or so, about 450 (0.94%) were called active. Another 19% or so got no clear call; they are omitted. Calls come from the whole dose curve; as a rule, active = well fitted inhibition curve with a large enough effect; inconclusive = small, poorly fitted or top-dose-only effect; inactive = no such curve, though single readings can be large or run the other way. This is one part of the list.

Experiment: Primary qHTS for Identification of Small Molecule Inhibitors of Huntingtin Promoter Activity; note: nearly all actives have a fitted effect of over 50% in size
Settings: HEK293 HTT promoter firefly luciferase reporter (activity 0% = vehicle and -100% = no light), 24 h; series mostly up to 57.5 µM; activity change, negative = inhibition: at the top concentration
Summary of the method: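 Firefly luciferase signal from promoter-reporter HEK293 cells was scaled between vehicle (0%) and zero RLU (-100%). Compounds were tested at final concentrations of up to 57.5 uM over 24 h at 37 degrees C. PTC124 at 50 uM final served as control inhibitor.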

Activity change, negative = inhibition, inactive:
CCOc1ccc(NC(=O)Cn2c(=O)n(CCCCC(=O)NCCc3ccc(Cl)cc3)c(=O)c3ccccc32)cc1 -1.94%
CCc1ccccc1NC(=O)CC1NCCNC1=O (centres undefined) 2.18%
O=C(Nc1cccc(Cl)c1)N1CC2CCCN2c2ccccc21 (centres undefined) -23.3%
Cc1ccc(-n2c(=O)c3ccc(C(=O)NCc4ccco4)cc3n(CC(=O)Nc3ccc(C)c(F)c3)c2=O)cc1 -11.5%
COc1ccc(CNC(=O)c2ccc3c(c2)nc2n3CCCCC2)cc1 47.8%
Cc1ccc(NS(=O)(=O)c2ccc3c(c2)N(C)C(=O)CC(=O)N3C)cc1Cl -22.1%
CCC1CN(C(=O)N2CCC(C(=O)N3CCN(c4ccccc4)CC3)CC2)c2ccccc2O1 (centres undefined) -22.8%
CCOc1ccc(-n2c(SCC(=O)NCc3ccccc3)nc3n[nH]c(C)c3c2=N)cc1 -18.4%
Nc1nnc(-c2cccc(Cl)c2Cl)c(N)n1 -0.774%
O=S(=O)(NCC(c1cccs1)S(=O)(=O)c1ccccc1)c1ccccc1 (centres undefined) -23.6%
Cc1cc(C)n(C(C)CC(=O)Nc2ccc(Cl)cc2C)n1 (centres undefined) -10%
COc1cccc(CN2C(=O)C3(SCC(=O)N3c3ccc(C)c(Cl)c3)c3ccccc32)c1 (centres undefined) -33.3%
CC[C@@]1(O)C(=O)OCc2c1cc1n(c2=O)Cc2cc3c(CN(C)C)c(O)ccc3nc2-1 -28.1%
Cc1cccc(C(=O)n2nc(C)c(S(=O)(=O)N3CCOCC3)c2C)c1 -16.6%
CCOc1ccc(Sc2cc(C(=O)NCc3ccc(C)cc3)c3ccccc3n2)cc1 -13.4%
COCCCn1c(=N)c(C(=O)NC2CCCC2)cc2c(=O)n3cccc(C)c3nc21 1.65%
CCOc1ccccc1NS(=O)(=O)c1cc2[nH]c(=O)c(=O)[nH]c2cc1C 1.02%
COc1ccc(Cn2ccc3nc(C)c(C(=O)Nc4cc(OC)c(OC)c(OC)c4)cc3c2=O)cc1 -22.1%
COC(=O)c1scc(-c2ccc(C)cc2)c1S(=O)(=O)N1CCN(c2ccc(F)cc2)CC1 -24.9%
Nc1c(C(=O)NCc2cccs2)nnn1CC(=O)Nc1cccc(F)c1 -6.22%
CCC1CCCCN1C(=O)c1c[nH]c2ccc(S(=O)(=O)Nc3cccc(OC)c3)cc2c1=O (centres undefined) -2.58%
Cc1cc(C)cc(-n2ccn(CC(=O)c3ccc(F)cc3)c(=O)c2=O)c1 -17.3%
CCOc1ccc(NC(=O)CCc2c(C)nc3cc(-c4ccccc4OC)nn3c2C)cc1 -25%
COC(=O)c1ccc(CSc2c(C(C)C)cnc3c2c(=O)n(C)c(=O)n3C)cc1 -0.8%
O=C(O)c1ccc(NS(=O)(=O)c2ccc(Cl)c(C(=O)Nc3ccccc3)c2)cc1 -0.694%
Cc1ccc(N(C)S(=O)(=O)c2ccc3[nH]c(=O)ccc3c2)cc1 -22.2%
O=C(c1ccc(CS(=O)(=O)c2ccc(Br)cc2)o1)N1CCN(c2ccc(F)cc2)CC1 -25.7%
Cc1ccc(NC(=O)c2sc3ncnc(N(C)C4CCCCC4)c3c2C)c(C)c1 -0.881%
N#C/C(=C\c1ccc(OCc2ccc(Cl)cc2Cl)cc1)c1nc2ccccc2[nH]1 -24.3%
COc1ccc(NC(=O)c2cnn(-c3ccc(C)c(C)c3)c2C2CCNCC2)cc1OC -3.78%
Cc1cccc(C2=Nc3ccccc3N=C(c3cc(Cl)ccc3O)C2)c1 -21.9% [at 11.5 µM]
Cc1oc2c(cc(NS(=O)(=O)c3ccc(C(C)C)cc3)c3ccccc32)c1C(=O)OCc1ccccc1 -8.27%
COc1ccc(OC)c(CNC(=O)c2cc3c(Cl)nc4ccccc4c3s2)c1 -14%
Cc1cccc(NC(=O)/C(C#N)=C/c2ccco2)c1 46.9%
CCCNC(=O)Cn1nc(-c2ccc(OC)cc2)c2cnc3ccc(F)cc3c21 -20.7%
CCOc1ccc(-n2c(C)nc3cc(C(=O)NC4CCCC4)ccc32)cc1 -12%
CCN1CCN(c2ccc(Nc3cc(N(C)C(=O)Nc4c(Cl)c(OC)cc(OC)c4Cl)ncn3)cc2)CC1 3.06%
O=C(O)/C=C(\CC(=O)O)C(=O)O 11.9%
COc1ccc(CNC(=O)Cn2c(=O)n3nc(-c4ccc(OC)cc4)nc3c3ccccc32)cc1 24.4%
COc1ccc(-c2noc(CSc3nnc(C)n3-c3ccc(F)cc3)n2)cc1 -17.5%
COc1ccc(NC(=O)C(c2ccccc2)N(C)C(=O)/C=C\c2ccc3c(c2)OCO3)cc1 (centres undefined) -25%
COc1ccc(-c2c(C)nn3c(C(F)(F)F)cc(-c4ccc(C)cc4)nc23)cc1 -27.5%
Cc1ccccc1OCC(=O)Nc1c(C(=O)Nc2ccccc2F)oc2ccccc12 -19%
COC(=O)c1cnc(N2CCN(c3ccc(OC)cc3)CC2)c2ccccc12 -27.6%
CCCCc1ccc(NC(=O)CSc2nc3ccccc3nc2N2CCCCC2)cc1 2.66%
CCCNC(=O)CCc1c(C)nc2nc(CNC(=O)c3ccccc3)nn2c1C -9.77%
Cc1ccc(F)cc1NC(=O)CSc1nc(-c2cccs2)cc(C(F)(F)F)n1 -6.72%
Cc1ccc(NC(=O)CN2C(=O)CC(c3ccco3)Sc3ccccc32)cc1Cl (centres undefined) -13.7%
COc1ccc(NC(=O)c2oc3ccccc3c2NC(=O)c2cc3ccccc3o2)c(OC)c1 -0.657%
